# Some of the results follow.
# Tested on: PF3D7_0420300 AP2 domain 1 (GST-tagged)
# Assay: gcPBM binding intensity (ln(normalized median fluorescence intensity)); higher = stronger DNA binding
# Summary of the method: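 GST-tagged P. falciparum DNA-binding domains produced in E. coli were incubated for 1 h on an Agilent 4 × 180k array of primer-extended double-stranded 36-bp intergenic genomic probes with negative controls. Binding intensity is the highest Masliner-normalised natural-log median intensity across replicate spots of either probe orientation, with bound protein detected by Alexa488 anti-GST antibody at 488 nm.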
row,Sequence,gcPBM binding intensity (ln)
1,AAGTGAAATAAAATATGTACATATATGTATATATAA [XGTACX_site4473],9.31
2,AAAAAAAAAGAATGTGAACACACACCGTGAATATAA [CACACA_site8342],9.57
3,TTTTTTCTTCGTGTATTAAGTCACAATAGGAAAAAA [GTGCAC_negctrl_site644],8.72
4,TGTATTTATAGACACACACACTTTCTTTTTTTAAGA [CACACA_site7010],9.6
5,AACAATTAGAACTTTGCACACTTCTATATATTTTGT [CACACA_site674],9.6
6,TACATATATAAAAAAACACACACATATATATATATA [CACACA_site8315],9.54
7,TGTATAATAAGGAAGAGTACAAGTAAATACACACAT [XGTACX_site2084],9.87
8,AAAATGCATTTGATGTGTACGCATTATAAAGAACAA [XGTACX_site4203],9.19
9,CAAATAGCTAGCTGTGCACACAAACATATTTTCCAA [CACACA_site879],9.46
10,CACAAACAAAGACACACACACACACGCACAAAAATG [CACACA_site7193],10.1
11,TAGCCCACATTTAATGGTACAGTGAGTATATATATG [XGTACX_site8044],9.27
12,ATGGAAATAAAAAAAAAAAAAAAAAAAAATATATAT [GTGCAC_negctrl_site67],9.3
13,TACATAAAATACCATGCATGCTAGTAAAAAAAAAAA [TGCATGCA_site650],9.24
14,TAATATATTTATAGAGCATGCAACGTAATATTATTA [TGCATGCA_site863],9.28
15,ATCCCAGTAATATATAGTACATAACTATAAGAGAAT [XGTACX_site6909],9.5
16,AAAGCACGCAAGAATACACACAAATATTATAAAAAA [CACACA_site6206],9.53
17,TAAAAAATTATAAAATGTACATAAAAAAAAAAAAAA [XGTACX_site3376],9.19
18,AGGAAAACAAAAGATGCATGCTAATTTTCCTCGCGT [TGCATGCA_site627],9.28
19,CTGAAGAAACTACAACGTACAAAATATGTATATATT [XGTACX_site3779],9.33
20,TTTATTAATTAAACCATACACACATAATTTTTTTAT [CACACA_site842],9.47
21,AAACGTGCGTATATGTGTACGCATATATATATATAT [XGTACX_site5252],9.27
22,AGAAAAAAAATGTATACACACAAATATAAAGAAGGA [CACACA_site3806],9.84
23,AAAATTAATAAATGAGAAAAAAGGATGAATAATGAG [CACACA_negctrl_site1614],9.57

row,Sequence,gcPBM binding intensity (ln)
1,ATGATATGGATAAATACACACAATATAATAATGTCT [CACACA_site1433],9.66
2,CATATATACTCATACACACACACACCGACACAGACA [CACACA_site5026],10.1
3,TATGATGAGATAACAAAAGTTGTACTTTTTTTTTTT [CACACA_negctrl_site1172],8.95
4,ATATTTTTTAGGGTCACACATACTTATTATATAAAT [CACACA_site4926],9.39
5,AATATTTAACACCTTATACACACTTTCTTCCTTTTT [CACACA_site785],9.74
6,ATGAATTTTTCTCTACAAAAGGATATAATAAAAATA [XGTACX_negctrl_site461],8.79
7,TAGTGTGCCAAATTAGCACACACATATATACATGAA [CACACA_site8910],9.42
8,TTTTCTAATTAATATTGTACATAAATGTATATATAT [XGTACX_site4749],9.05
9,ATCAAAGATAAATTTACACACATATAAATATAAATA [CACACA_site7409],9.53
10,GTTTTTATCATATCATGTACGTATTTTATTTTTTTT [XGTACX_site8643],9.81
11,CTTCTGGACAGGAATGCACACATTTTTTTTTCTTTT [CACACA_site1807],9.51
12,TATATATATATATATTGTACAAAGATTAATATATAA [XGTACX_site8433],9.12
13,ACTTAATTTTTTTATTGTACATGTAAATGAGGGAAA [XGTACX_site6305],9.04
14,TATTTTAATAAGAATAAATGAAATGAAATGAAATAT [CACACA_negctrl_site823],9.28
15,ACATCCTATAAATAGAGTACGTAAATTATAATACAC [XGTACX_site5338],9.4
16,TAAAACAAAATGGTAACACACACATATATATATATA [CACACA_site8590],9.61
17,AAATGACGAAATAAAATCATAAATTAAAATAAATAA [CACACA_negctrl_site655],9.23
18,ATAGCATTTCACAAATGTACATAAAAAAATAAAAAT [XGTACX_site402],9.27
19,TCCTATCATTTATATTTTACTACATAATATTGATAA [GTGCAC_negctrl_site286],9.25
20,AAATGGAAATTAATATGTACATATTTATAAGTATGA [XGTACX_site1774],9.31
21,TTATTTTTTGTATGAACACACAACTTAATTATGATG [CACACA_site2448],9.37
22,ATGTTTCTATAGATTTGTACATATTTCATATGAATA [XGTACX_site1053],9.3
23,TCTTTTCTTTTGTGTGTGCACATATAAGCATGAAAC [GTGCAC_site9910],9.6

row,Sequence,gcPBM binding intensity (ln)
1,TTTTTTAATTAATTACCTTTGAATGTGTATTAGGAC [GTGCAC_negctrl_site651],9
2,TTTTACAAATATTTCTGTACACATTCTCATATAATT [XGTACX_site1974],9.41
3,CCCCTATAAATAGGGTGTACTAATAAATATTTTTAA [XGTACX_site1244],9.17
4,ACGGGCGACACATAAGTGCGCAAAAAAAAAAAAATA [GTGCAC_site9688],8.94
5,TAAAATAAAAAGTTTACACACATATATAACTTTAAT [CACACA_site6456],9.45
6,GAAAAGTATAAAAAACGTACAAGTTTTATTTTCACA [XGTACX_site4604],9.19
7,TTTTATAAAACATGTAGTACATGAAAAAAAAAATTT [XGTACX_site1626],9.12
8,AAAATACAGAAACACACACACACACCCATATATATA [CACACA_site3559],10.3
9,GTATTCATTCCTTGAGTGCAATTGCAATAAATAAAA,9
10,CATATTAAGATGTGTACACATTTTTATTTTTTTTTT [CACACA_site4425],9.27
11,TATTACATAATATATGTACACACGCAAATACTTATA [CACACA_site7994],9.44
12,TAACAACGATACAATTGTACAAATTATATATATATA [XGTACX_site4687],9.42
13,CAAAAAAAGTTATACACACACACACGGATATAAATA [CACACA_site6619],10.1
14,AGCAAGACGGGGTGCACACAAACTAATATGCCGAAT [CACACA_site159],9.58
15,AATAATATATTATATGCATGTGTATAATTTGATATA [TGCATGCA_site1058],9.19
16,TTTGGTTATTTGACCTGTACACATTTAATTATTTTT [XGTACX_site5170],9.48
17,CAAAGGAAATGGTGTACACAATTTTTCCTTTTTCGT [CACACA_site4800],9.06
18,ACAAGTATTCCTTTTGCACACCTTTCTGCACCTTAT [CACACA_site3873],9.66
19,ATTATGAATTTAAGACGTACAAAAAATTTTTATTCA [XGTACX_site5682],9
20,AAATACTTATTCGTGGTGCAACAATTTTAAAAATTA,9
21,ATTAAAATAATACGTACACACATGTATAATACATAT [CACACA_site1005],9.63
22,TAATATATTTTTAACATGCACTGTATTTTAATATAT,9.2
23,TCTGGATTGGATTACAAGAAAATAAAATATAAAATA [CACACA_negctrl_site122],8.87

row,Sequence,gcPBM binding intensity (ln)
1,TATACAAATATATATGCACACACATATATGTATATG [CACACA_site9007],9.58
2,TAATTAAAGTTATCTACACACCTTTATAGATATATA [CACACA_site7778],9.31
3,TATAAAACAAATATATGTACATATCATAGTATAATA [XGTACX_site2965],9.4
4,TATAACACACAATGATGTACATTACATTATTTTTTA [XGTACX_site2076],9.25
5,AATATAATATACATATGTACATATATATATATATAT [XGTACX_site8218],9.21
6,ATATATATATATATGTGTACATATTTTTTTGAAGTG [XGTACX_site248],9.2
7,TAATATAAATGAAAGGTGCTTTTGCTTTCTTTTTTT,9.16
8,TTTTCTATATAACAACGTACATTTATTATATTATAA [XGTACX_site6148],9.21
9,AAAAAAAAAAAAAATACACACACACCGATATATATA [CACACA_site8142],10.1
10,ATACATATAATAATATGTACATATAATTATATATAT [XGTACX_site913],9.14
11,TTATACTGTACAAAAAGAATAGCAGTATAACAAAAA [CACACA_negctrl_site755],9.38
12,ACAGGATTGGTTCAAACACACATATTATAGGACTAT [CACACA_site6455],9.44
13,AAAAAAAAATCATATTGTACGTAAAAAAAAAAAAAA [XGTACX_site476],9.03
14,AATATGTTTTGTTAGGTTGGTGTTGGTAGAATGTTT [CACACA_negctrl_site1563],9.35
15,CAATATATTTGATTTACACACTTACAATGTATTTAA [CACACA_site5632],9.35
16,CGAAAAAATAAAAAAAAAATAAAATAAAATAAATAA [TGCATGCA_negctrl_site278],9.19
17,AATTAAATGATTTATACATGCATATAAATATAAATA [TGCATGCA_site579],9.09
18,TCTGTAAATATGTATACACACATATATGATCAATAT [CACACA_site3234],9.42
19,AGTAGAAAAGGAACATGTACGAATTAAAAAAATAAT [XGTACX_site2347],9.62
20,ACATATATATATATATATATATATATATTTATTTAT [CACACA_negctrl_site734],9.03
